# About 2,200 (0.71%) of roughly 310,000 compounds showed an effect of 50% or more. Effects have a minus sign here. The list shows a part of the results.
# Target: human ether-à-go-go-related gene (hERG) potassium channel (human, UniProt Q12809)
# Experiment: primary screen, population patch clamp on CHO cells stably expressing hERG
# Sequence of human ether-à-go-go-related gene (hERG) potassium channel (Q12809 whole entry, looked up): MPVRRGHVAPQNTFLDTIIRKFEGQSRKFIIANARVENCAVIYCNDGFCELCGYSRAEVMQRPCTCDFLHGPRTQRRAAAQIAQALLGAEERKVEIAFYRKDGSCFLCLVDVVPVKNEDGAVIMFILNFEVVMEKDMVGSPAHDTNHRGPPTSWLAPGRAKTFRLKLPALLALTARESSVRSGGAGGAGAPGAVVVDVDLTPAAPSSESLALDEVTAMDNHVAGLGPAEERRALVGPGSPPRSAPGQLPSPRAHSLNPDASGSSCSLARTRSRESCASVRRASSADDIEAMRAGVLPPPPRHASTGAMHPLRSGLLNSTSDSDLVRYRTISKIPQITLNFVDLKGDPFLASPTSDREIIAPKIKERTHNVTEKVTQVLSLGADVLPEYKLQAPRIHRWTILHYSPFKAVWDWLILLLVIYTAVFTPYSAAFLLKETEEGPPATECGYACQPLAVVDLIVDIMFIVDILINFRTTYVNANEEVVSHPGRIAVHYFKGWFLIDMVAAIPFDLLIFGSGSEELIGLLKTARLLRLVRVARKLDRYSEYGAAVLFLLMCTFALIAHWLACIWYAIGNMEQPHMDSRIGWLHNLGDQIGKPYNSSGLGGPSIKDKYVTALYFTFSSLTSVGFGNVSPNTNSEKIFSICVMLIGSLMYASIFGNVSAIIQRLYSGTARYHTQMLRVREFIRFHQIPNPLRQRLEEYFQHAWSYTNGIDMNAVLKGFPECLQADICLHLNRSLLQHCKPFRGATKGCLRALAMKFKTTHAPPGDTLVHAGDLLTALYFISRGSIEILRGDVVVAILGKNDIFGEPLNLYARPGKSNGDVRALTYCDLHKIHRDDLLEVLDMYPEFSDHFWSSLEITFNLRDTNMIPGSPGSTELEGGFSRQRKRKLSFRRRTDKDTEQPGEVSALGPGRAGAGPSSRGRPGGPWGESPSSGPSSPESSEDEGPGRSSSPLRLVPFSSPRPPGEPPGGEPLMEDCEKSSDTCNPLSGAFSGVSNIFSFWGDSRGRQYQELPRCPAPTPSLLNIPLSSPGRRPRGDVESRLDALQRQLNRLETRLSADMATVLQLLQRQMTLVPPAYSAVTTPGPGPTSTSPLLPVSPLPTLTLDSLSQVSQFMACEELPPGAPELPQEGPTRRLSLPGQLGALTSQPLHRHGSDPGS
row,Compound,"hERG current change (%, negative = inhibition) at 1uM"
1,NNC(=O)CNC(c1ccccc1)c1cc(Br)ccc1NC(=O)CCN1CCOCC1 (stereo not drawn),15.2%
2,COc1ccc(-c2noc(C3CCCN(C(=O)c4ccccc4OC)C3)n2)cc1OC (stereo not drawn),10.6%
3,CCOC(=O)c1c(C)n(C)c2cc([N+](=O)[O-])c(O)c([N+](=O)[O-])c12,11.8%
4,O=C(O)CCC(C(=O)O)n1c(O)c(C2=c3ccccc3=NC2=O)sc1=S (stereo not drawn),17.5%
5,C=COCCNC(=O)C(=O)NCC(C)C,8.35%
6,Cc1ccc(OCCOCCn2ccnc2)c(Br)c1,1.98%
7,Cn1c(CCN2CCCCC2)nc2cc([N+](=O)[O-])ccc21,-54.8%
8,CN1CCN(c2ccc(C(N)=O)cc2N)CC1,11.6%
9,O=C(/C=C/c1cccc([N+](=O)[O-])c1)Nc1cc(C(=O)O)cc(C(=O)O)c1,8.4%
10,N/C(=N\OC(=O)C1CCCCC1)c1cccnc1,17.2%
11,O=C(O)Cn1nc2c3c(cccc3c1=O)-c1ccccc1-2,8.49%
12,COc1ccc(OC)c(/C=N/NC(=O)CCc2c(C)n[nH]c2C)c1,13.3%
13,CSCCC(=O)N1CCC(n2nccc2NC(=O)CCCc2ccccc2)CC1,8.23%
14,Fc1ccccc1/C=C/c1ccc2ccccc2n1,14.3%
15,Cc1ccc(-n2nc(C)c3cc(C(=O)O)sc32)cc1,0.904%
16,CCN(c1ccccc1)S(=O)(=O)c1ccc(Cl)c(NC(=O)COC(=O)C2CC2C)c1 (stereo not drawn),13.7%
17,CC1CN(c2oc(-c3ccco3)nc2S(=O)(=O)c2ccccc2)CC(C)O1 (stereo not drawn),1.21%
18,Cc1cc(Nc2ccc(F)cc2)nc(N)n1,-14.2%
19,Cc1ccc(S(=O)(=O)CC(=O)Nc2ccc3nc(C)sc3c2)cc1,8.45%
20,CCCCC1CCC(C(=O)N(C)CC(=O)Nc2cccc(OC)c2)CC1 (stereo not drawn),29.1%
21,Cc1cc2oc(C(=O)N(Cc3ccccc3)c3ccccn3)cc(=O)c2cc1Cl,10.6%
22,CC(C)(C)c1ccc(/C=C/C(=O)NCCCn2ccnc2)cc1,-13.3%
23,NC(=O)c1cc(N2C(=O)C=CC2=O)ccc1Cl,5.24%

row,Compound,"hERG current change (%, negative = inhibition) at 1uM"
1,O=C(Nc1ncc2c(n1)-c1ccccc1CC2)c1ccccc1,-13%
2,CCN1CCc2nc3ccccc3c(C(=O)Nc3ccc(F)cc3)c2C1,-81.6%
3,COC(=O)Nc1cccn(Cc2c(Cl)cccc2Cl)c1=O,7.21%
4,CC1(C(=O)O)CCC(C(=O)Nc2ccccc2)C1(C)C (stereo not drawn),13.5%
5,O=C(Nc1nnc(C2CC2)s1)C1Cc2ccccc2CN1S(=O)(=O)c1cccs1 (stereo not drawn),9.47%
6,CCOc1ccc(C(=O)NCC(=O)NC(C)CCc2ccccc2)cc1OCC (stereo not drawn),-2.24%
7,COc1ccc(CNC(=O)c2ccc(Cn3cc(Cl)cn3)o2)cc1,6%
8,CC(Sc1nnnn1C)C(=O)Nc1ccc(Oc2ccccc2)cc1 (stereo not drawn),10.1%
9,Cc1ccc(S(=O)(=O)N2CCOC2CNC(=O)C(=O)NCCc2ccc(S(N)(=O)=O)cc2)cc1 (stereo not drawn),8.36%
10,CC(C)CCNC(=O)C1CC(=O)N(CCc2ccccc2)C1 (stereo not drawn),7.92%
11,CC(=O)c1c(N2CCOCC2)nc(=S)n(Cc2ccccc2)c1C,-14.5%
12,Cn1c(=O)c2c(SC3CCCC3)nc(C3CC3)nc2n(C)c1=O,15.7%
13,Cl.OC(CNCCCN1CCCCC1)COc1ccccc1 (stereo not drawn),1.25%
14,Cc1ccccc1NC(=O)Cn1c(=O)sc2ccccc21,6.46%
15,COc1ccc(Br)cc1C(=O)O,-2.68%
16,COCCNC(=O)c1onc(CSc2ccccc2)c1C(=O)O,14%
17,Cc1ccc(OCc2cc(C(=O)NCCc3cccnc3)no2)cc1C,-4.55%
18,COc1cccc(CN(C)CC(=O)NCc2ccccc2Cl)c1OC,10.6%
19,O=C(CNS(=O)(=O)c1cccc2nsnc12)NC1CCCCC1,8.71%
20,Cc1ccc(C(=O)O/N=C2\CCCc3ccccc32)cc1,9.99%
21,CCOc1ccc(-c2nc(-c3cccs3)c(CC(=O)O)s2)cc1OC,16.2%
22,Cc1cccc(NC(=S)Nc2ccc(Cl)c(Cl)c2)c1,14%

# Reference: PMC4336329 (PLoS ONE, 2015)
